Hit rate of the full screen: of about 310,000 compounds, about 14,000 (4.5%) showed an effect of 50% or more. Effects have a minus sign here. This is one part of the list.
The compounds below were run against human ether-à-go-go-related gene (hERG) potassium channel (human, UniProt Q12809) (assay: primary screen, population patch clamp on CHO cells stably expressing hERG).
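Note: peak tail current of the secondary pulse compared with the same well before compound.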

Sequence of human ether-à-go-go-related gene (hERG) potassium channel (Q12809 whole entry, looked up): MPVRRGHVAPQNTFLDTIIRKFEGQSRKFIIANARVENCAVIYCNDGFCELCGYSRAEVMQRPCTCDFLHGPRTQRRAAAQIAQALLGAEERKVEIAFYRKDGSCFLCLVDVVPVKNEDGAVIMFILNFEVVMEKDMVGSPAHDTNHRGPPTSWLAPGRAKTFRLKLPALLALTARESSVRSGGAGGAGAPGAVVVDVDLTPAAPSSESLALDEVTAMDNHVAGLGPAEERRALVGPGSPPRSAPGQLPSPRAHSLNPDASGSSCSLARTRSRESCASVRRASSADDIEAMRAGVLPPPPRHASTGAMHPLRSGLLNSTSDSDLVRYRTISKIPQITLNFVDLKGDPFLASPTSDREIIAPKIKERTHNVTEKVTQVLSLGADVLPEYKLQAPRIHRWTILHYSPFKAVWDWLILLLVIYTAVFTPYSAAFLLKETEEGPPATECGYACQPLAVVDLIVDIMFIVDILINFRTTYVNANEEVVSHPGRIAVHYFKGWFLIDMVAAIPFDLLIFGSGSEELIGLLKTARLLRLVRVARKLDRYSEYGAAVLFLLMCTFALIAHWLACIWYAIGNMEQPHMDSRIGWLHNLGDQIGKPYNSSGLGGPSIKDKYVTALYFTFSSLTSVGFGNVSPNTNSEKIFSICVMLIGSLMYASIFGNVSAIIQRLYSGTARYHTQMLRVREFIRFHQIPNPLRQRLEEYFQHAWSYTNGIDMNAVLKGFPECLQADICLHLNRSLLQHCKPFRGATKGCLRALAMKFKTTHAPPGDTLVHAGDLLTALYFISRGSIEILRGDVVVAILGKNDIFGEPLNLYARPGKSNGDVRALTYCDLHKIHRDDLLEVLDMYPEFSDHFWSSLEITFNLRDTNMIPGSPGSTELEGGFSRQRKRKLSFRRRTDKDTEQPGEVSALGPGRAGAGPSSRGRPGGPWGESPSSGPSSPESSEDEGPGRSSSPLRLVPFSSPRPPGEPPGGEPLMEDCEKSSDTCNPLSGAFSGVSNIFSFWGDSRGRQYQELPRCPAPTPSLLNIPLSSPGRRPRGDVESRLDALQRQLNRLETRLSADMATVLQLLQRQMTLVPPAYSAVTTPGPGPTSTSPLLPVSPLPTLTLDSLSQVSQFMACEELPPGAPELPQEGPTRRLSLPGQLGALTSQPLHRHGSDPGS

Structure (SMILES) | hERG current change (%, negative = inhibition) at 10uM [%]
CCOP(=O)(OCC)C(NC(=O)c1cccs1)C(F)(F)F (stereo not shown) | 18.4
CSC1=C(C#N)C(c2ccc(Cl)cc2)C2=C(CC(C)(C)CC2=O)N1 (stereo not shown) | -6.94
Cn1c(=O)c2c(ncn2CCC(=O)N/N=C/c2ccncc2)n(C)c1=O | 5.33
CCOc1ccc(NC(=O)CN(C)C(=O)c2cc(C)oc2C)cc1OCC | -8.5
COc1cccc(C(=O)/C=C/c2ccc(SC)cc2)c1 | -5.67
Cc1cccc(NC(=O)CS(=O)(=O)c2cn(C)c3ccccc23)c1C | -2.18
CCc1ccccc1NC(=O)C1C2C=CC(O2)C1C(=O)O (stereo not shown) | 18.1
Cc1ccc(SCC(=O)Nc2ccc3c(c2)C(=O)N(C)C3=O)cc1 | 10.1
CCOC(=O)c1sc(NC(=O)CN2CCN(c3ccc(OC)cc3)CC2)nc1C | -20.6
Cc1ccc(S(=O)(=O)N(CC(=O)NCc2ccncc2)C2CCCCC2)cc1 | -63
CCC(C)NC(=O)c1ccccc1-c1ccccc1C(=O)NC(C)CC (stereo not shown) | 5.37
COc1cccc(C(=O)NCCSc2ccc(C)cc2)c1 | -38.5
C/C(=N\NC(=O)c1nnn(-c2nonc2N)c1CN1CCC(C)CC1)c1cccc(Br)c1 | -7.59
CCC(C)(C)NC(=O)C(c1ccccc1F)N(C(=O)c1ccn[nH]1)c1ccccc1 (stereo not shown) | -10
Cc1cc(C)cc(NC(=O)Nc2ccccc2N2CCCCC2)c1 | -5.42
COc1cccc(NC(=O)Nc2nnc(CC(=O)Nc3ccccc3)s2)c1 | 7.49
Nc1c(C(=O)Nc2cccc(Cl)c2Cl)sc2nc(-c3cccnc3)ccc12 | 11.4
COc1ccccc1OCc1ccc(C(=O)N(C)c2ccccc2)o1 | 7.76
CCn1c(COc2cccc(C)c2)nnc1SCC(=O)NC1CCCC1 | 2.63
Cc1ccc(C(=O)/C=C/c2ccc(-c3ccc(C)cc3)o2)cc1 | 2.07
NC(=O)CN(c1ccc(Cl)cc1)S(=O)(=O)c1ccccc1 | -9.45
CCOCCCNC(=O)c1c[nH]c2ccc(C)cc2c1=O | 11.3

Structure (SMILES) | hERG current change (%, negative = inhibition) at 10uM [%]
COc1ccc(-n2ncc3c(NC(C)C)ncnc32)cc1 | 0.368
Cc1ccn2cc(C(=O)NC3CCN(Cc4ccccc4)CC3)nc2c1 | -28.8
COc1cc(C(=O)NCC(=O)NC(C)CCc2ccccc2)cc(OC)c1OC (stereo not shown) | 4.05
CC(NC(=O)c1cc(F)c(F)cc1Cl)C1CC2CCC1C2 (stereo not shown) | -5.43
COC(=O)c1cn(C(=O)c2cc(C)cc(C)c2)c2ccccc12 | 30.7
Cc1cc(C)nc(-n2nc(C)cc2NC(=O)CN2CCc3ccccc3C2)n1 | -68.7
COc1cccc(-c2ncc3ccccc3c2COC(=O)c2ccc(F)cc2)c1 | 17.2
Cc1ccc(-c2nnc3sc(-c4ccncc4)nn23)cc1 | -41.4
O=C(O)c1ccc(-c2nnc(-c3ccc([N+](=O)[O-])cc3)o2)cc1 | 13.6
Fc1ccc(Cn2c(-c3cscn3)nc3ccccc32)c(Cl)c1 | 13.8
O=C1NC(=O)N(Cc2ccccc2)C(=O)/C1=C\C=C\c1ccco1 | 25.4
CCCS(=O)(=O)N1CCN(C(=O)c2ccco2)CC1 | 22.7
COc1ccc([C@H]2CC(=O)C=C(c3ccccc3C(F)(F)F)C2)cc1 | 4.66
CN1C(=O)C(=Cc2ccc(OCC(=O)Nc3ccccc3)cc2)C(=O)N(C)C1=O | 17.4
O=C(Nc1nc2ccccc2s1)c1cccc(S(=O)(=O)N2CCc3ccccc32)c1 | -7.03
CN1CCN(c2ccc(Cl)cc2NC(=O)c2ccc(=O)n(C)n2)CC1 | -58.3
O=C(NCC1CCCO1)C1CCC(CNS(=O)(=O)c2ccccc2)CC1 (stereo not shown) | 15.5
CCCOc1cc(C)c(S(=O)(=O)NCCOC)cc1C | -5.35
CCN(CC)S(=O)(=O)c1ccc(N2CCOCC2)c(NC(=O)c2ccc(OC)c([N+](=O)[O-])c2)c1 | -24.5
CCOc1cccc(=O)c2c(C)oc(C)c12 | 0.291
S=c1[nH]nc(-c2ccccc2)n1/N=C/c1ccc(Cl)cc1 | 20.1
Cc1csc(C(=O)O)c1-c1c(C)csc1C(=O)O | 1.61

Structure (SMILES) | hERG current change (%, negative = inhibition) at 10uM [%]
O=[N+]([O-])c1cc2c(cc1CN1CCN(CCOCCO)CC1)OCO2 | 15.8
N#Cc1ccc(OCC(O)CS(=O)(=O)c2ccccc2)cc1 (stereo not shown) | -21
C/C=C1\COC(C(=O)NCc2cccc(OC)c2OC)(C(F)(F)F)C=C1C=C1CCCCC1 (stereo not shown) | -1.9
C=CCNc1cnn(-c2ccc(C)cc2)c(=O)c1Sc1ccc(C)cc1 | -79.4
O=c1[nH]c(=O)n(Cc2ccccc2)c2nc(-c3ccc(C(F)(F)F)cc3)n(CCO)c12 | 5.7
CCCC(=O)Nc1ccc(C(N)=O)cc1 | 16.3
Cc1ccc(C(=O)N/C(=C\c2ccco2)C(=O)NCC2CCCO2)cc1C (stereo not shown) | 3.11
CC(CC(=O)N1CCN(c2ccc(C(F)(F)F)cn2)CC1)n1ccnc1 (stereo not shown) | -66.2
c1ccc(CSc2ncnc3c2sc2nc(N4CCOCC4)c4c(c23)CCCC4)cc1 | -4.97
Cc1ccnc(N2CCCC(C(=O)NC3CC3)C2)n1 (stereo not shown) | -6.63
Nc1ccccc1N=Cc1c(O)n(CCC2=CCCCC2)c(=O)[nH]c1=O | 0.0276
CC(C)C[C@H](NC(=O)C1CCC(CNC(=O)[C@@H]2CCCN2C(=O)OC(C)(C)C)CC1)C(=O)O (stereo partly shown) | 13.1
CCOC(=O)N1CCN(C(=O)c2oc3ccc(S(=O)(=O)N4CCCCC4)cc3c2C)CC1 | -21.6
CN(C)CCCN(C(=O)c1ccc(S(=O)(=O)N2CCc3ccccc3C2)cc1)c1nc2ccc(F)cc2s1.Cl | 1.76
CCCCn1c(N)c(N(CCOC)C(=O)CN2CC=C(c3ccccc3)CC2)c(=O)[nH]c1=O | 16
CCOc1ccc(OCCOc2cccc(C(F)(F)F)c2)cc1 | 9.77
CCNC(=O)CC1SC(=Nc2cccc(Cl)c2C)N(C)C1=O (stereo not shown) | 3.31
COc1ccc(N2CC(O)=C(c3nc(-c4ccc(F)cc4)cs3)C2=N)cc1OC | -19
C#CCOCCOCCOCCNc1nc(N2CCN(C(=O)[C@H](CCCCN)n3cc(C(N)CO)nn3)CC2)nc(N2CCN(C(=O)[C@H](CCC(=O)O)n3cc(C(N)[C@H](C)CC)nn3)CC2)n1.Cl (stereo partly shown) | 9.4
COc1cc(C(=O)N2CCN=C2c2ccccc2)cc(OC)c1OC | 6.39
N#C/C(=C(/O)Cc1ccccc1)P(=O)(c1ccccc1)c1ccccc1 | 4.09
Cc1nnc(NC(=O)CSc2cn(CCNC(=O)c3ccccc3)c3ccccc23)s1 | -2.03

Structure (SMILES) | hERG current change (%, negative = inhibition) at 10uM [%]
COc1cc(/C=C2\S/C(=N/S(=O)(=O)c3ccc(C)cc3)NC2=O)c([N+](=O)[O-])cc1OC | -16.4
O=C(O)CCC(=O)Nc1ccc(C(=O)OCC(=O)c2ccc(Cl)cc2Cl)cc1 | 6.13
CCOC(=O)CNC(=O)CSc1nc(-c2ccccc2)ns1 | 2.32
O=C(CNC(=O)c1ccccc1)OC(C(=O)c1ccccc1)c1ccccc1 (stereo not shown) | 0.0122
N=C1SC(CC(=O)Nc2ccc([N+](=O)[O-])cc2)C(=O)N1c1ccccc1 (stereo not shown) | 6.39
NS(=O)(=O)c1ccc(CCNC(=O)C2CCN(S(=O)(=O)c3c(Cl)cccc3Cl)CC2)cc1 | -7.27
O=C(NC1CCCCC1)c1ccc(-c2ccc(Cl)cc2)o1 | 2.82
COc1cc(/C=C2\SC(=O)N(CC(=O)Nc3ccc(C)cc3)C2=O)cc(Cl)c1OCC(=O)O | 9.93
CN1C(=O)c2ccccc2C(C(=O)NCCCN2CCCC2)C1c1c[nH]c2ccccc12 (stereo not shown) | 0.177
CCOC(=O)CCNC(C)C1COc2ccccc2O1.O=C(O)C(=O)O (stereo not shown) | 1.93
S=C(NCC1CCCO1)Nc1ccc(Nc2ccccc2)cc1 (stereo not shown) | 3.04
Cc1cccc(NC(=O)CN2C(=O)COc3ccc(Cl)cc32)c1C | 8.74
COC(=O)C1=C(C)N(Cc2ccccc2)C(=O)N[C@H]1c1cccc(F)c1 | -2.86
O=C(CCC(=O)OCC(=O)c1cccc([N+](=O)[O-])c1)NC1CCCCC1 | -31.8
COc1ccc(CNC(C)C(=O)Nc2ccc3ccccc3c2)cc1OC (stereo not shown) | 7
COC(=O)c1ccc(COc2ccc(Cl)cc2)o1 | 2.11
O=C(CN1C(=O)c2cccnc2Oc2ccc(Cl)cc21)NC1CCCCCC1 | -3.92
Cc1nn(-c2ccccc2)c(C)c1/C=N/NC(=O)c1ccccc1NS(=O)(=O)c1cccs1 | 4.39
COc1ccc(-c2oc3ccccc3c2C#Cc2cncn2C)cc1 | 16

— paper PMC4336329 (PLoS ONE, 2015)
